# Source: the supplement of paper PMC8728848
# This is one part of the list.
# Experiments:
# Test in all cases: glycan array binding signal (z-score within array); higher = stronger binding
# Details in all cases: glycan notation: IUPAC condensed, linker removed
# [1] = target: GlcNAc(a1-4)Gal(b1-3)GlcNAc
# Outline: (§1)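 Columns mapping to the same glycan were averaged after glycan names were converted to IUPAC-condensed notation. The data come from 3228 arrays in the Consortium for Functional Glycomics database, limited to those with an available protein sequence. Binding is reported as a within-array Z-score averaged across arrays of one protein sequence and across linkers.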
# [2] = target: GlcNAc(a1-4)Gal(b1-4)GalNAc
# Outline: as §1
# [3] = target: GlcNAc(a1-4)Gal(b1-4)GlcNAc
# Outline: as §1
# [4] = target: GlcNAc(a1-4)Gal(b1-4)GlcNAc(b1-3)Gal(b1-4)Glc
# Outline: as §1
# [5] = target: GlcNAc(a1-4)Gal(b1-4)GlcNAc(b1-3)Gal(b1-4)GlcNAc
# Outline: as §1
# [6] = target: GlcNAc(a1-4)Gal(b1-4)GlcNAc(b1-3)Gal(b1-4)GlcNAc(b1-3)Gal(b1-4)GlcNAc
# Outline: as §1
# [7] = target: GlcNAc(a1-4)Gal(b1-4)GlcNAc(b1-3)Gal(b1-4)[Fuc(a1-3)]GlcNAc(b1-3)Gal(b1-4)[Fuc(a1-3)]GlcNAc
# Outline: as §1
# [8] = target: GlcNAc(a1-6)Gal(b1-4)GlcNAc
# Outline: as §1
# [9] = target: GlcNAc(b1-2)Gal(b1-3)GalNAc
# Outline: as §1
# [10] = target: GlcNAc(b1-2)Man(a1-3)[GlcNAc(b1-2)Man(a1-6)]Man(b1-4)GlcNAc(b1-4)GlcNAc
# Outline: as §1
# [11] = target: GlcNAc(b1-2)Man(a1-3)[GlcNAc(b1-2)Man(a1-6)]Man(b1-4)GlcNAc(b1-4)[Fuc(a1-6)]GlcNAc
# Outline: as §1
# [12] = target: GlcNAc(b1-2)Man(a1-3)[GlcNAc(b1-4)][GlcNAc(b1-2)Man(a1-6)]Man(b1-4)GlcNAc(b1-4)GlcNAc
# Outline: as §1
# [13] = target: GlcNAc(b1-2)Man(a1-3)[GlcNAc(b1-4)][GlcNAc(b1-2)Man(a1-6)]Man(b1-4)GlcNAc(b1-4)[Fuc(a1-6)]GlcNAc
# Outline: as §1
# [14] = target: GlcNAc(b1-2)[GlcNAc(b1-4)]Man(a1-3)[GlcNAc(b1-2)Man(a1-6)]Man(b1-4)GlcNAc(b1-4)GlcNAc
# Outline: as §1
# [15] = target: GlcNAc(b1-2)[GlcNAc(b1-4)]Man(a1-3)[GlcNAc(b1-4)][GlcNAc(b1-2)Man(a1-6)]Man(b1-4)GlcNAc(b1-4)GlcNAc
# Outline: as §1
# [16] = target: GlcNAc(b1-2)[GlcNAc(b1-4)]Man(a1-3)[GlcNAc(b1-4)][GlcNAc(b1-2)[GlcNAc(b1-6)]Man(a1-6)]Man(b1-4)GlcNAc(b1-4)GlcNAc
# Outline: as §1
# [17] = target: GlcNAc(b1-2)[GlcNAc(b1-4)]Man(a1-3)[GlcNAc(b1-4)][GlcNAc(b1-2)[GlcNAc(b1-6)]Man(a1-6)]Man(b1-4)GlcNAc(b1-4)[Fuc(a1-6)]GlcNAc
# Outline: as §1
# [18] = target: GlcNAc(b1-2)[GlcNAc(b1-6)]Man(a1-6)[GlcNAc(b1-2)Man(a1-3)]Man(b1-4)GlcNAc(b1-4)GlcNAc
# Outline: as §1
# [19] = target: GlcNAc(b1-2)[GlcNAc(b1-6)]Man(a1-6)[GlcNAc(b1-2)Man(a1-3)]Man(b1-4)GlcNAc(b1-4)[Fuc(a1-6)]GlcNAc
# Outline: as §1
# [20] = target: GlcNAc(b1-2)[GlcNAc(b1-6)]Man(a1-6)[GlcNAc(b1-4)][GlcNAc(b1-2)Man(a1-3)]Man(b1-4)GlcNAc(b1-4)GlcNAc
# Outline: as §1
# GlcNAc(b1-3)Fuc = target: GlcNAc(b1-3)Fuc
# Outline: as §1
# GlcNAc(b1-3)Gal = target: GlcNAc(b1-3)Gal
# Outline: as §1
binder,measurement,setting,value
"NPA (Narcissus pseudonarcissus), C0HM45 (protein) DNILYSGETLSPGEFLNNGRYVFIMQEDCNLVLYDVDKPIWATNTGGLDRRCHLSMQSDGNLVVYSPRNNPIWASNTGGENGNYVCVLQKDRNVVIYGTARWATGTNIH",glycan array binding signal (z-score),[1],-0.152
same,glycan array binding signal (z-score),[2],-0.125
same,glycan array binding signal (z-score),[3],-0.12
same,glycan array binding signal (z-score),[4],-0.136
same,glycan array binding signal (z-score),[5],-0.14
same,glycan array binding signal (z-score),[6],-0.138
same,glycan array binding signal (z-score),[7],-0.115
same,glycan array binding signal (z-score),[8],-0.155
same,glycan array binding signal (z-score),[9],-0.16
same,glycan array binding signal (z-score),[10],0.885
same,glycan array binding signal (z-score),[11],-0.124
same,glycan array binding signal (z-score),[12],-0.143
same,glycan array binding signal (z-score),[13],-0.152
same,glycan array binding signal (z-score),[14],-0.076
same,glycan array binding signal (z-score),[15],-0.15
same,glycan array binding signal (z-score),[16],-0.149
same,glycan array binding signal (z-score),[17],-0.14
same,glycan array binding signal (z-score),[18],-0.143
same,glycan array binding signal (z-score),[19],-0.14
same,glycan array binding signal (z-score),[20],-0.156
same,glycan array binding signal (z-score),GlcNAc(b1-3)Fuc,-0.138
same,glycan array binding signal (z-score),GlcNAc(b1-3)Gal,-0.152
